Reference: patent publication US20230174604A1 (Innovent, published 2023)

T1: IL-2Rα (CD25) on primary human CD8+ CD25+ T cells (human, UniProt P01589 22-272)
T1 sequence (looked up): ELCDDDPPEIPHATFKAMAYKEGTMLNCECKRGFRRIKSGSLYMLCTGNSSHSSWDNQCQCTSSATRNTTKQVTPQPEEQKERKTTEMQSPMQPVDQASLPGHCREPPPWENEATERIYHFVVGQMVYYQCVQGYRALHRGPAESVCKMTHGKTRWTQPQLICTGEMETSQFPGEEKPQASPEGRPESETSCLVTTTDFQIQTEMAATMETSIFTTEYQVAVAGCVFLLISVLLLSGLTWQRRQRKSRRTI

T2: IL-2Rβ IH-Biotin (biotin-labeled human IL-2Rβ, UniProt P14784 aa27-240, with C-terminal avi tag and His6 tag) (human, UniProt P14784 27-240, biotin on the avi tag (enzymatic labeling with BirA))
T2 construct: In-house protein, distinct from the Acro Biosystems IL-2Rβ-Biotin used only for library sorting; also called IL-2Rβ receptor
T2 sequence: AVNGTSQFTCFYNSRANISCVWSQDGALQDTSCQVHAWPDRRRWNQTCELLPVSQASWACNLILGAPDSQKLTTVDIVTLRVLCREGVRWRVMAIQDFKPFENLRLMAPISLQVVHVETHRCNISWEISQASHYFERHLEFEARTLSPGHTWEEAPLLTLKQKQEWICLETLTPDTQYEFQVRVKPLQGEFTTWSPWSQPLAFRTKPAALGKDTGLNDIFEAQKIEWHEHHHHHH

T3: IL-2Rα-Biotin (biotin-labeled human IL-2Rα, UniProt P01589 aa22-217, with C-terminal avi tag and His6 tag) (human, UniProt P01589 22-217, biotin on the avi tag (enzymatic labeling with BirA))
T3 construct: Expressed in HEK293-F, monomer peak collected; loaded on SA sensor or used to stain yeast; also called CD25; IL-2Rα receptor
T3 sequence: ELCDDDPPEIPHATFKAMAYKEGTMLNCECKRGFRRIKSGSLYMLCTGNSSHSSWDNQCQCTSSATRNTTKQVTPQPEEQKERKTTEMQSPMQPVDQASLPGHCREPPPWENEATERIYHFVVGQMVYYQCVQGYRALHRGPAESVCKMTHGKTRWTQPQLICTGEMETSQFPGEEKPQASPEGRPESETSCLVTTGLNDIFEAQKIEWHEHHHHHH

B1: IL-2^WT-FC fusion protein (IL-2^WT-2*(G4S)-FcLALA) (Fc fusion)
chain: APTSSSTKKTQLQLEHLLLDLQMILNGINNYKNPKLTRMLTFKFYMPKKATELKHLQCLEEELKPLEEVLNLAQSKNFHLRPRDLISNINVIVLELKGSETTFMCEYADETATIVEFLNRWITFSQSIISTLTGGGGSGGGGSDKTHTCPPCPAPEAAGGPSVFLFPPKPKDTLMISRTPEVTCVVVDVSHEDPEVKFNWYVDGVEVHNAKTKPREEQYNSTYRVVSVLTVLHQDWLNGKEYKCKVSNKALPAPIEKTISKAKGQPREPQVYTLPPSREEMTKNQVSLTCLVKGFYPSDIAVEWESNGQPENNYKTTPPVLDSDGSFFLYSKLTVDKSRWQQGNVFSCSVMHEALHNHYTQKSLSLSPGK
notes: also called Y045
B2: IL-2 mutant Y30E1 (K35E, T37E, R38E, F42A)-FC fusion protein (Fc fusion)
chain: APTSSSTKKTQLQLEHLLLDLQMILNGINNYKNPELEEMLTAKFYMPKKATELKHLQCLEEELKPLEEVLNLAQSKNFHLRPRDLISNINVIVLELKGSETTFMCEYADETATIVEFLNRWITFSQSIISTLTGGGGSGGGGS[here human IgG1 Fc with changes without letters]
B3: Y093 (IL-2^.Y30E1.truncate1.K76A-2*(G4S)-FcLALA) (Fc fusion)
chain: APTSSSTKKTQLQLEHLLLDLQMILNGINNYKNPELEEMLTAKFYMPKKATELKHLQCLEEELKPLEEVLNLAQSANFHDLISNINVIVLELKGSETTFMCEYADETATIVEFLNRWITFSQSIISTLTGGGGSGGGGS[here human IgG1 Fc with changes without letters]
B4: Y089 (IL-2^.Y30E1.truncate1-2*(G4S)-FcLALA) (Fc fusion)
chain: APTSSSTKKTQLQLEHLLLDLQMILNGINNYKNPELEEMLTAKFYMPKKATELKHLQCLEEELKPLEEVLNLAQSKNFHDLISNINVIVLELKGSETTFMCEYADETATIVEFLNRWITFSQSIISTLTGGGGSGGGGS[here human IgG1 Fc with changes without letters]
B5: Y092 (IL-2^.Y30E1.15BCL-2*(G4S)-FcLALA) (Fc fusion)
chain: APTSSSTKKTQLQLEHLLLDLQMILNGINNYKNPELEEMLTAKFYMPKKATELKHLQCLEEELKPLEEVLNLAGDASIHDLISNINVIVLELKGSETTFMCEYADETATIVEFLNRWITFSQSIISTLTGGGGSGGGGS[here human IgG1 Fc with changes without letters]
B6: Y094 (IL-2^.Y30E1.truncate1.K76D-2*(G4S)-FcLALA) (Fc fusion)
chain: APTSSSTKKTQLQLEHLLLDLQMILNGINNYKNPELEEMLTAKFYMPKKATELKHLQCLEEELKPLEEVLNLAQSDNFHDLISNINVIVLELKGSETTFMCEYADETATIVEFLNRWITFSQSIISTLTGGGGSGGGGS[here human IgG1 Fc with changes without letters]
notes: also called IL-2^.Y30E1.truncate1.K67D-2*(G4S)-FcLALA
B7: Y144 (IL-2^.Y30E1.15BCL.T3A-2*(G4S)-FcLALA) (Fc fusion)
chain: APASSSTKKTQLQLEHLLLDLQMILNGINNYKNPELEEMLTAKFYMPKKATELKHLQCLEEELKPLEEVLNLAGDASIHDLISNINVIVLELKGSETTFMCEYADETATIVEFLNRWITFSQSIISTLTGGGGSGGGGS[here human IgG1 Fc with changes without letters]
B8: IL-2^3X-FC fusion protein (IL-2^.3X-2*(G4S)-FcLALA) (Fc fusion)
chain: APTSSSTKKTQLQLEHLLLDLQMILNGINNYKNPKLTDMLTFEFYMPKKATELKHLQCLERELKPLEEVLNLAQSKNFHLRPRDLISNINVIVLELKGSETTFMCEYADETATIVEFLNRWITFSQSIISTLTGGGGSGGGGS[here human IgG1 Fc with changes without letters]
notes: also called Y040

biological target: T1, IL-2Rα (CD25) on primary human CD8+ …; assay: cell-based or functional assay

Binder	Ratio of CD25^- EC50/CD25^+ EC50 [ratio]
B1	1980
B2	1.72
B3	2.79
B4	5.94
B5	1.78
B6	2.89

biological target: T2, IL-2Rβ IH-Biotin (biotin-labeled human …); assay: ForteBio BLI, biotinylated receptor on SA sensor, 100 nM IL-2-FC in solution, 1:1 model (avidity)
Description: (§1) The ForteBio affinity assay was conducted according to the method (Estep, P et al., High throughput solution Based measurement of antibody-antigen affinity and epitope binding. mAbs, 2013.5 (2): p. 270-8) known in the art. […] The kinetic analysis was performed using a 1:1 binding model.
(§2) The following mutant proteins were subjected to affinity KD value determination according to the ForteBio affinity determination method described in Example 2.

Binder	Kd [nM]
B2	6.45
B3	1.96
B4	4.53
B5	3.27
B6	3.35
B7	1.55

biological target: T3, IL-2Rα-Biotin (biotin-labeled human …); assay: as above
Description: as §1
(§3) In the assay described above, the affinity KD values of IL-2^mutant-FC fusion proteins expressed by HEK293-F cells for their receptors are shown in Table 3. As a control, the affinity KD values of the IL-2^WT-FC and IL-2^3X-FC fusion proteins measured using the same method are also shown in Table 3.

Binder	Kd [nM]
B1	10

biological target: T2, IL-2Rβ IH-Biotin (biotin-labeled human …); assay: as above; remark: another data set of the same source
Description: as §1, §3

Binder	Kd [nM]
B2	5.9

biological target: T3, IL-2Rα-Biotin (biotin-labeled human …); assay: ForteBio BLI, biotinylated receptor on SA sensor

Binder	binding result
B2	no binding (tested: 100 nM IL-2-FC)
B8	no binding (tested: 100 nM IL-2-FC)

biological target: T3, IL-2Rα-Biotin (biotin-labeled human …); assay: ForteBio BLI, biotinylated receptor on SA sensor; remark: another data set of the same source
Description: as §1, §2

Binder	binding result
B3	no binding (tested: 100 nM IL-2-FC)
B4	no binding (tested: 100 nM IL-2-FC)
B5	no binding (tested: 100 nM IL-2-FC)
B6	no binding (tested: 100 nM IL-2-FC)
B7	no binding (tested: 100 nM IL-2-FC)
